About 14,000 (4.5%) of roughly 310,000 compounds showed an effect of 50% or more. Effects have a minus sign here. Some of the results follow.
Biological target: human ether-à-go-go-related gene (hERG) potassium channel (human, UniProt Q12809)
Assay: primary screen, population patch clamp on CHO cells stably expressing hERG
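Note: peak tail current of the secondary pulse compared with the same well before compound.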

Sequence of human ether-à-go-go-related gene (hERG) potassium channel (Q12809 whole entry, looked up): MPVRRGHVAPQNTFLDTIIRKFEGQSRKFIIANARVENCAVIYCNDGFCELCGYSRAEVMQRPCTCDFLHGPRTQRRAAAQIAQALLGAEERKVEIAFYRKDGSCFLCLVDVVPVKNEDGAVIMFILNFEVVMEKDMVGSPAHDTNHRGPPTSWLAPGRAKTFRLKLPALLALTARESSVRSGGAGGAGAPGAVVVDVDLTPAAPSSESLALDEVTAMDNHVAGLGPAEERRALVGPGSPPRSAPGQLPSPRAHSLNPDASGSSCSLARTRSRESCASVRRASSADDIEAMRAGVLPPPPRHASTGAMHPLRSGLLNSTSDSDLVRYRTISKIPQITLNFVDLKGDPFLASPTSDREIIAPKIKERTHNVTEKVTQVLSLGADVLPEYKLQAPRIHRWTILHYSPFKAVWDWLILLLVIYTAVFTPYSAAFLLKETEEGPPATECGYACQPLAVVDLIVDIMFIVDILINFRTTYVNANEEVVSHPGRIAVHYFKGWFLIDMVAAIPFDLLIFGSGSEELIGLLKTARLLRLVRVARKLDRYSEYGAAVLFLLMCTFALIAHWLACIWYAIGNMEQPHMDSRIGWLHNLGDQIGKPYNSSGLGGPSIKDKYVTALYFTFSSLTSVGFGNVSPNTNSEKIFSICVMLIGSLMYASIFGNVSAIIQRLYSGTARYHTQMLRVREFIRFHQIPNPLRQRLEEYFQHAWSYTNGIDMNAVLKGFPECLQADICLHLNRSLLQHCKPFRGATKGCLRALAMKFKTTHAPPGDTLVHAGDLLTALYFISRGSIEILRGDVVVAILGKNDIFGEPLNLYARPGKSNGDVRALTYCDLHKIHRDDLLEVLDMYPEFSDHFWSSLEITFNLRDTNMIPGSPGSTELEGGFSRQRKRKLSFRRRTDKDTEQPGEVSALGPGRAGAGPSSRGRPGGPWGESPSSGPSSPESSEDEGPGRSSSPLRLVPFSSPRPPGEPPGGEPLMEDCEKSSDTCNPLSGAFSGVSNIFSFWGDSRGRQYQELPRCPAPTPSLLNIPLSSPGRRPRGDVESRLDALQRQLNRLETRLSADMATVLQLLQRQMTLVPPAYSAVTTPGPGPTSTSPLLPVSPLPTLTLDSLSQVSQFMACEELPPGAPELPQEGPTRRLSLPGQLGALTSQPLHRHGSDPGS

Row | Structure (SMILES) | hERG current change (%, negative = inhibition) at 10uM
1 | CC(C)(C)n1nc2c(c1NC(=O)COc1ccc3ccccc3c1)CS(=O)(=O)C2 | -25%
2 | Cn1c(N)cc(-c2ccc(F)cc2)c(C#N)c1=O | 3.18%
3 | Cc1ccc(Nc2nc(N)nc(COC(=O)C3=COCCO3)n2)cc1 | -6.76%
4 | Cc1cc(C)n2nc(C(=O)N3CCN(c4ccc([N+](=O)[O-])cc4)CC3)nc2n1 | -71.4%
5 | Cc1cc(NS(=O)(=O)c2ccc(NC(=O)CCSc3ccc(F)cc3)cc2)nc(C)n1 | 4.71%
6 | O=c1oc2ccccc2c(O)c1C=Nc1cccnc1 | 12.2%
7 | COc1cccc(-c2ccc(NC(=O)C3CCCN(Cc4cnn(C)c4C)C3)cc2)c1 (stereo not drawn) | 0.939%
8 | CCOc1cc2[nH]c(=O)n(CCC(=O)NCCc3ccc(OC)c(OC)c3)c(=O)c2cc1OCC | 7.04%
9 | Cc1ccc(C(=O)Nc2ccccc2-c2ccccc2)o1 | -12.3%
10 | CCOc1ccc(Oc2c(/C=N/NC(C)=O)c(C)nn2-c2ccccc2)cc1 | -0.74%
11 | CC(=O)NC1C(OCCOc2ccc(Cl)cc2Cl)OC(COC(C)=O)C(OC(C)=O)C1OC(C)=O (stereo not drawn) | -43.6%
12 | O=C(NC1CC2CCCC(C1)N2C(=O)Nc1ccc(F)cc1)c1ccccc1 (stereo not drawn) | -3.42%
13 | CC1(C(=O)NCCN2CCOCC2)C=CC2(CCCCC2)N1C(=O)c1ccccc1 (stereo not drawn) | 12%
14 | CN(c1cccc(NS(=O)(=O)c2cccs2)c1)S(C)(=O)=O | 9.88%
15 | CCOC(=O)c1cc(S(=O)(=O)N(C)Cc2ccccc2)cn1C | -11.7%
16 | O=c1cc(-c2ccccc2)[nH]n2cnnc12 | 12.6%
17 | CCOC(=O)CC(=O)Nc1ccn[nH]1 | 23.5%
18 | N#Cc1nc(-c2ccco2)oc1NCCN1CCOCC1 | 7.46%
19 | COc1cccc(C(=O)CSc2nc3ccccc3n2CC(=O)N(C(C)C)C(C)C)c1 | -5.36%
20 | CCS(=O)(=O)/N=C(\N)c1ccccc1 | -2.86%
21 | COc1ccc(CCNC(=O)CSc2nc(O)c(CC(C)C)c(=O)[nH]2)cc1OC | -0.127%
22 | CC1CCN(Cc2c(C(=O)N/N=C/c3ccc(C(C)(C)C)cc3)nnn2-c2nonc2N)CC1 | 17.7%

Row | Structure (SMILES) | hERG current change (%, negative = inhibition) at 10uM
23 | O=c1cc(CN2CCN(c3ccccc3F)CC2)c2cc3c(cc2o1)CCCC3 | 5.86%
24 | CCCCn1c(N)c(N(CCOC)C(=O)CN(C)S(=O)(=O)c2ccc(C)cc2)c(=O)[nH]c1=O | 7.22%
25 | COc1cccc(C(=O)Nn2c(-c3cccs3)nc3ccccc3c2=O)c1OC | -4.95%
26 | c1ccc2c(c1)c1ccccc1n1c(-c3ccc4c(c3)OCO4)nnc21 | 3.9%
27 | Brc1ccc(OCCCCN2CCCCC2)cc1 | -53.6%
28 | O=C(CCC(=O)Nc1ccccc1)N/N=C/C=C/c1ccccc1 | 32.1%
29 | COC(=O)c1c(C)nc(C)c(C(=O)OC)c1-c1ccc(OC)cc1 | -7.69%
30 | Cc1ccc(CN2CCN(CC(=O)N/N=C/c3ccc(C)o3)CC2)cc1 | -64.2%
31 | COC(=O)c1ccccc1NC(=O)COC(=O)CSc1nnc(N)s1 | 14.4%
32 | O=C(COC(=O)C1CC1)Nc1nc(-c2ccc(F)c(F)c2)cs1 | 4.93%
33 | CCOC(=O)CC(=O)CSc1ncnc2c1nnn2-c1ccc(OC)cc1 | 9.43%
34 | Cc1cc(OC(C)C(=O)N2CCN(c3ccccc3)CC2)c2c(C)c(C)c(=O)oc2c1 (stereo not drawn) | 10.3%
35 | Cc1cc(F)ccc1S(=O)(=O)Nc1c(C)n(C)n(-c2ccccc2)c1=O | 12.4%
36 | O=C1Nc2ccccc2OC1CC(=O)N1CCOCC1 (stereo not drawn) | 0.751%
37 | CN(C)S(=O)(=O)N1CCN(CC(=O)Nc2ccc(Br)cc2)CC1 | -49.4%
38 | Cc1ccc(S(=O)(=O)N(C)/N=C/C=C/c2ccccc2)cc1 | 0.391%
39 | O=C(Nc1nnc(-c2ccccc2Cl)o1)c1cccnc1 | 9.03%
40 | COc1ccc(C(=O)NCc2ccco2)cc1S(=O)(=O)N1CCOCC1 | -12.7%
41 | COc1cc(C(F)(F)F)ccc1C(=O)NCCc1ccco1 | -20.8%
42 | CN(C)c1ccc(NC(=O)Nc2ccc3snnc3c2)cc1 | 7.25%
43 | O=C(CN1C(=O)NC2(CCCCCCC2)C1=O)N1CCOCC1 | -5.51%
44 | COc1cc2c(cc1OC)C(C(=O)N1CCOCC1)C(c1cccs1)N(C)C2=O (stereo not drawn) | 4.09%

Row | Structure (SMILES) | hERG current change (%, negative = inhibition) at 10uM
45 | CCc1ccc(-c2nc(CS(=O)CC(=O)NCCCN3CCC(C)CC3)c(C)o2)cc1 (stereo not drawn) | -11.2%
46 | C=C(C)C(=O)Nc1cccnc1Oc1ccc(F)cc1F | 1.98%
47 | O=C(Nc1ccccc1)c1cccc(S(=O)(=O)Nc2ccccn2)c1 | 23.6%
48 | CN(C)c1ccc2c(O)cc(=O)n(C)c2c1 | 6.76%
49 | CCC(=NCc1ccco1)c1c(O)n(-c2ccc(OC)cc2)c(=O)[nH]c1=O | -23.7%
50 | CC1CC(C)(C)CC2(C1)NC(=O)N(CC(=O)N1CCN(S(=O)(=O)c3cccs3)CC1)C2=O (stereo not drawn) | -7.67%
51 | CCN(CC)S(=O)(=O)c1cccc2nsnc12 | 16%
52 | O=C(Nc1ccc(F)cc1)Nc1cc(S(=O)(=O)N2CCOCC2)ccc1N1CCCC1 | -97.4%
53 | CCCN(C(=O)CSc1nc2ccccc2n1CC)C1CCS(=O)(=O)C1 (stereo not drawn) | 2.29%
54 | Cc1cccn2c(=O)c3cc(C(=O)NCC4CCCO4)c(=N)n(Cc4ccc(F)cc4)c3nc12 (stereo not drawn) | -75.7%
55 | Cc1ccc(-c2c(C(=O)NC(C)C)oc(=O)c3ccccc23)cc1 | -8.59%
56 | CC1Cc2ccccc2N1CC(=O)NCc1ccc2c(c1)OCO2 (stereo not drawn) | 11.1%
57 | O=[N+]([O-])c1ccc(C2(O)CN(c3ccccc3)C3=[N+]2CCS3)cc1.[Br-] (stereo not drawn) | -60.8%
58 | Cc1ccc2oc(=O)c3cnn(CC(=O)Nc4cc(-c5cccc(F)c5)no4)c3c2c1 | -4.48%
59 | O=c1oc(-c2ccccc2F)nc2scc(-c3ccccc3)c12 | -25.2%
60 | Cc1cc(=O)oc2c(C)c(OCC(=O)N(C)C)ccc12 | 9.8%
61 | CC1CN(C(=O)c2cc3c(=O)n4ccccc4nc3n2C)CC(C)O1 (stereo not drawn) | 15.4%
62 | O=C(Nc1ccc(OC(F)(F)F)cc1)c1cnc2n(c1=O)CCS2 | -33.8%
63 | O=C(NC1CCCC1)C(c1cccs1)N(C(=O)c1ccco1)c1ccc2c(c1)OCCO2 (stereo not drawn) | -22.6%
64 | CC1(C)CC(=O)c2cc(OCC(=O)NCCCN3CCN(c4ccccc4F)CC3)ccc2O1 | -47.4%
65 | Cc1nnc(SCC(=O)N2CCN(c3ccccc3)CC2)n1C1CC1 | 5.65%
66 | CC(Oc1ccc(Cl)cc1)C(=O)NCC1CCCO1 (stereo not drawn) | 2.5%

Row | Structure (SMILES) | hERG current change (%, negative = inhibition) at 10uM
67 | O/N=C(\c1ccccn1)C1CC1c1ccccc1 (stereo not drawn) | 10.3%
68 | Cc1ccc(S(=O)(=O)N(C)C)cc1NC(=O)COC(=O)c1ccc2c(c1)OCO2 | -15.7%
69 | COc1ccc(-c2cc(=O)oc3cc(OC(C)C(=O)NCC4CCC(C(=O)O)CC4)ccc23)cc1 (stereo not drawn) | 10.6%
70 | CCC(Sc1nc(C)cc(C)n1)C(=O)Nc1cc(C)on1 (stereo not drawn) | -1.92%
71 | NS(=O)(=O)c1cccc(NC(=O)Nc2ccc(Cl)cc2)c1 | -2.59%
72 | COc1ccccc1C(=O)NC(C)c1ccc(-n2ccnc2)cc1 (stereo not drawn) | -52.6%
73 | CCOC(=O)c1ccc(NC(=O)c2nc[nH]c2C(=O)N[C@@H](CC(C)C)C(=O)OC(C)(C)C)cc1 | 1.54%
74 | CC(=O)N1c2ccc(S(=O)(=O)N3CCC(C(=O)Nc4cccc(F)c4)CC3)cc2CC1C (stereo not drawn) | -0.952%
75 | CCC(CC)NC(=O)CSc1ccc(S(=O)(=O)N2CCOCC2)cn1 | -1.92%
76 | O=C1CCCN1CCCNS(=O)(=O)c1ccccc1 | 16.7%
77 | CCCCc1cc(=O)oc2cc(C)cc(OCC(=O)NCc3cccnc3)c12 | -54.1%
78 | O=C(COC(=O)c1ccco1)Nc1nc2c(F)c(F)c(F)cc2s1 | 1.61%
79 | CCOC(=O)N1CCC(NC(=O)c2cc(C(=O)Nc3ccc(S(=O)(=O)N4CCOCC4)cc3)ccc2CO)CC1 | 36.8%
80 | Cc1ccc2c(c1)C1CC(C)(O2)N(c2cccc(C(=O)N3CCN(c4ccccn4)CC3)c2)C(=O)N1 (stereo not drawn) | -25.3%
81 | O=C(Nc1ccc(N2CCOCC2)c(Cl)c1)C1CCCCC1 | 6.65%
82 | CN(C)C(=O)CSC1c2ccccc2C(=O)N1c1ccccc1 (stereo not drawn) | 9.06%
83 | CCC(CC)C1C(C#N)=C(N)Oc2n[nH]c(-c3ccccc3)c21 (stereo not drawn) | 17.9%
84 | O=C(NCc1ccc2c(c1)OCO2)C1CCN(c2nccc(C(F)(F)F)n2)CC1 | -6.63%
85 | CCOc1cc(N2CCOCC2)c(OCC)cc1NC(=O)c1ccc(OC(C)C)cc1 | 6.24%
86 | CC(=O)c1c(O)cc(O)cc1CC(=O)O | -4.21%
87 | COc1ccc(C(=O)Nc2ccccc2C(=O)Nc2cccc(C)n2)cc1 | 10.3%
